# Laboratory results as given in the RNAGym collection of RNA variant scans (doi:10.1073/pnas.2313332121).
# This sample is rich in variants without activity.
# B1: TPR 5TU (parent)
# chain: GGAUCUUCUCGAUCUAACAAAAAAGACAAAUCUGCCACAAAGCUUGAGAGCAUCUUCGGAUGCAGAGGCGGCAGCCUUCGGUGGCGCGAUAGCGCCAACGUUCUCAACUAUGACACGCAAAACGCGUGCUCCGUUGAAUGGAGUUUAUCAUG
# Variants of: B1
# Assay: polymerase ribozyme fitness, log enrichment relative to wild type (log ratio); higher = more active; in vitro selection for triplet polymerase activity
# How it was run: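 Genotype fitness is the logarithm of its enrichment divided by wild-type enrichment, using inverse-variance-weighted averages of replicates. That logarithm is base 2. Enrichment was measured by Illumina sequencing of input and output libraries from one triplicate in vitro selection round, with frozen incubation at −7 °C, on PCR-built, transcribed mutant libraries of each subunit of a heterodimeric triplet polymerase ribozyme, retaining genotypes with ≥10 input reads and ≥1 read per output.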
row,Variant,polymerase ribozyme fitness (log ratio)
1,C14A A17C A26G C57U A60C C85G C96U A97U C108U A142C,≤ -4.2
2,U13A C105A A107C U134A,≤ -4.2
3,U13G U56A C57U C87A G88C A89U A121U C125A U148A,≤ -4.2
4,C14A A52G C85U A113C,-4.15
5,U13C A21G A24G C32U C72U C76G C85U C123G,≤ -4.2
6,U13G U53A C87U A89C,≤ -4.2
7,C14A C54A,-3.55
8,U13G A29U C38G G70U G117U A120U C149U,≤ -4.2
9,U13G G25C A40U C85A,≤ -4.2
10,U13G U77C C87A C93U U127G,≤ -4.2
11,U13A C14A A49G G50A A113U,≤ -4.2
12,U13C U78G C85A C116U,≤ -4.2
13,U13G C96A,-0.681
14,U13A G58A C87A G133A G143C,≤ -4.2
15,U13C A22C C96G U139G A142U U145A A150U,≤ -4.2
16,U13C U31G C32G C76U C131G,≤ -4.2
17,C14A A20U A60G A66U C93G,≤ -4.2
18,C14A C57A G80A C93U A107G G126U,≤ -4.2
19,C14A G86C,-3.85
20,C14A C54G A66C G94A C103G,≤ -4.2
21,U13C U45G G81A C85U C118U G126A,≤ -4.2
22,U13C U15C C75A C79A G86U U90A A115G,≤ -4.2
23,C14A G68U C76A C99U G100A,≤ -4.2
24,U13G C27A C36U A40C A60G A138G,≤ -4.2

row,Variant,polymerase ribozyme fitness (log ratio)
1,C14A G25U U55A G83A C96A,≤ -4.2
2,C14A G50A U77G A98U,≤ -4.2
3,U13G C32A C87U G92A G100U C123G C125U,≤ -4.2
4,U13C A26U U55A G68A G80A G84U U102C U148C,≤ -4.2
5,C14A C43U C79G,≤ -4.2
6,C14A A47C C123U U134A A138U U144G,≤ -4.2
7,U13A C85U A115C G128U,≤ -4.2
8,C14A C27G C35A C87U C116A U135G,≤ -4.2
9,C14A C35G G59C A64C A73G G141U,≤ -4.2
10,U13G G59A C93A A113G,≤ -4.2
11,U13C A29U U55G,≤ -4.2
12,U13G A49C G94C G133A,≤ -4.2
13,C14A A21U G59U G133C,-3.06
14,U13C A16U G84A U109G,-1.88
15,U13C C18A A40C U53A G83A,-2.56
16,C14A U45A A49U U53G G83U C116G,≤ -4.2
17,U13G U44A G124C U144G,≤ -4.2
18,C14A U44G,-4.1
19,U13G A23G C51A C76G A91U,≤ -4.2
20,U13C C32G U55A G68C G92U C93U U134C,≤ -4.2
21,U13C A22U A24U U53A A98U,-1.6
22,U13C C38G U53A U82G G92A C105G C114U G128C U151C,≤ -4.2
23,U13A A41G C85G A147G,-2.67
24,U13G G48A C93A C125G,≤ -4.2

row,Variant,polymerase ribozyme fitness (log ratio)
1,U13C C18U,0.127
2,C14A A52C C54A C85U,≤ -4.2
3,U13A G50A U55A A89C,-3.57
4,U13C C14U U77G G84U U145G U148A,≤ -4.2
5,U13A U15C A26C C93A,-3.05
6,U13G U77G A107U,≤ -4.2
7,C14A U55A U56A G70C U77G C85A G94A G126C U148A,≤ -4.2
8,U13A G25A C51G A60G C85A C125A,≤ -4.2
9,U13G A21U A49C,≤ -4.2
10,C14A C69G C75A G92U G140U,≤ -4.2
11,U13G U55A G74C A115G A120U,≤ -4.2
12,U13G G42A U56G G86U G133C G143U U146C,≤ -4.2
13,C14A G50A C85G C96A,≤ -4.2
14,U13A U44A G94U A115U,≤ -4.2
15,U13G A106G,-1.5
16,U13A C36A U55G C93G,≤ -4.2
17,U13A G94C,-1.19
18,U13G C38U C63U C76U A91G C93G C95U C149U,≤ -4.2
19,C14A U56A C96U C99U U102G G136U U151A,≤ -4.2
20,U13G A47C U53A G92A G126U G143A,≤ -4.2
21,U13G A21U A22C U82G G92U A98C C116U G136A,-4.02
22,C14A C85A,-2.69
23,U13G A16U A26U U55A C87U,≤ -4.2
24,U13C A91U A120U,-3.86

row,Variant,polymerase ribozyme fitness (log ratio)
1,U13C C93A G152A,≤ -4.2
2,U13G A41C C96U A107U C131A G133A U146C,≤ -4.2
3,U13G A39G A73C C96G A120C G140U,≤ -4.2
4,U13A C93G A97U G143A,≤ -4.2
5,C14A A24C A26U C96U,≤ -4.2
6,C14A A22U A24G G42U C76A A120G U127C U145C,≤ -4.2
7,U13C A22G U31C C43A C85G U145C,≤ -4.2
8,C14A C35G G84A C114U C123U G128C,≤ -4.2
9,C14A A24U G42C C76U C79G C87U A97G U148A,≤ -4.2
10,C14A C57G G71A C76A C99U C105A U127C A142G,≤ -4.2
11,U13C C14G A29U G74C A98G G141A G143U,≤ -4.2
12,U13G A22U G80A C93U C118A,≤ -4.2
13,U13G C35U A49C A107U,≤ -4.2
14,C14A A40G C43G G86U U135C G143C U148G,≤ -4.2
15,U13G G80C G94U U134A,≤ -4.2
16,U13G C57A G58U G62A C93U A97U A106G,≤ -4.2
17,U13G A16G A21G C51G G74A C93U U111G C114A G126A,≤ -4.2
18,U13G C27G G80C C103G A106C A115U A137G,≤ -4.2
19,U13G A28C C75U A91G U109G A150U,≤ -4.2
20,U13C U45A G88C U134A G140U C149U,≤ -4.2
21,U13A U33A A41C A49U C85U,≤ -4.2
22,U13G C36A G83U C99A G140U,-4
23,U13G A37U C43U A52C A73C G84C U109C G140A,≤ -4.2
24,U13G A29U C32G C75U C93U G133C,≤ -4.2

row,Variant,polymerase ribozyme fitness (log ratio)
1,U13A C35U A41G C63U G80U C87A C103A G124U U148G,≤ -4.2
2,U13G A23U C51A G68U G80A G84U A138G U148A,≤ -4.2
3,C14A A19U A37C U53G A73G U77G C96U,≤ -4.2
4,C14A A16G U45A U55G U61A G65U G94C C96U U101G,≤ -4.2
5,U13G C96G A120G,-1.51
6,U13A C43U C54G C72U G88C A142U U146A,≤ -4.2
7,U13G A26U C96G A120G,≤ -4.2
8,U13G C43A U55C U61A A97G,≤ -4.2
9,U13G A28U G71A G88C,≤ -4.2
10,U13G C57U C96G,-1.66
11,U13A A73G C87G,≤ -4.2
12,C14A C38U G84U,-3
13,U13A C35U C85A A137U U151G,≤ -4.2
14,U13G A16G A22U U44A U55A G71A G143U,≤ -4.2
15,U13C C93U U134A,-3.08
16,U13C C54G C95G,-3.76
17,C14A U53A C96A C116A A150C U151A,≤ -4.2
18,U13G C32A G86C A107G C125G U135A,≤ -4.2
19,U13G A60U C96A A150C,≤ -4.2
20,U13C C79G G86U C99G C103A G136C A137C G143A,≤ -4.2
21,C14A A39U A49U U82C,≤ -4.2
22,C14A A17G A22U A24C A41C G70A U78A U90C C129U,≤ -4.2
23,C14A C32G U45A U55A G59C G92A A98U A110U C114U,≤ -4.2
24,C14A C27G A91C A115G A121C,≤ -4.2

row,Variant,polymerase ribozyme fitness (log ratio)
1,C14A A73U C85U C99G C125A,≤ -4.2
2,U13C A39C U56A C95U G124A,-3.63
3,U13G G58C G88A G100A U104A C116G,≤ -4.2
4,C14A A16G,-0.651
5,U13A G25U C95U C123G C149A,≤ -4.2
6,U13C U55A A64U C85U,≤ -4.2
7,U13C C35A A91U C95A U104C C131G,≤ -4.2
8,C14A A20U G25A A40G C54U,≤ -4.2
9,U13A C35U C57U,-1.42
10,U13C C93G C99A U127C,≤ -4.2
11,C14A A29G A37C G68C C85A A106U U134C,≤ -4.2
12,C14A A17U A24C C57U G58C C87A,≤ -4.2
13,C14A G83A C93G A107G,≤ -4.2
14,C14A G48A G94A G100C C114A,≤ -4.2
15,C14A A16G A20G U56A U82G A106G,-3.04
16,U13G A21C A47G C51U G92A A120G,≤ -4.2
17,U13C C14G C57A U101G,-1.23
18,U13C C72A A73U C87U G141U,≤ -4.2
19,U13G C14U A52G G92C,≤ -4.2
20,U13A C14A A47U G83U G128U,≤ -4.2
21,C14A A39U G59C G84A G92C A138U U139A,≤ -4.2
22,U13C C76U U90C U130A U135G U139A,≤ -4.2
23,U13A C32G A37U A52G G94A G128A U146G,≤ -4.2
24,C14A A17C A41C C96U A115U G141A,≤ -4.2

row,Variant,polymerase ribozyme fitness (log ratio)
1,U13A G50U C69G U78C A89U A120G,≤ -4.2
2,C14A C38A C93G,≤ -4.2
3,U13G A23C G62A G84A,≤ -4.2
4,U13G G50C A60C C79U G94A A97U A98U,≤ -4.2
5,U13G A17C A21U C36A A89U A98G U144A,≤ -4.2
6,U13G A23U A64G C76U C96A,≤ -4.2
7,U13G C18U U53A U56A C85A C93U A97U,≤ -4.2
8,U13G C35A G50A C54A C76G C87G A89U A107C G136A A137G G143U,≤ -4.2
9,U13C G126A G140C,≤ -4.2
10,C14A C57U A66C G84A G88C A97C U135G G136A,≤ -4.2
11,C14A C38U U56A C93G A110C G136U G143A,≤ -4.2
12,U13G U55A G94A G100A G140U,-4.11
13,U13G A19U A49U C54G A89G C93U U127C,≤ -4.2
14,U13G A21C A23U A24U A89U C103G A110C,≤ -4.2
15,U13C G50C A73G C96G A107U A119U U148C G152A,≤ -4.2
16,U13C A29U G34A A39C U77G G80C U139C U144A G152U,≤ -4.2
17,U13G A24C C35A A49U C76G A91C,≤ -4.2
18,U13A G48U U56A G84A,-1.28
19,U13C A39U U56A G86A C87U,≤ -4.2
20,C14A G25U A52G A91G C108U,≤ -4.2
21,U13C C32A A49C,≤ -4.2
22,U13G A24G G143C,≤ -4.2
23,U13G C38U C57A U61A C69U U104C,≤ -4.2
